From the GPR68 mutational scans of Howard et al. (2025)

B1: GPR68, Q15743 (parent)
chain: MGNITADNSSMSCTIDHTIHQTLAPVVYVTVLVVGFPANCLSLYFGYLQIKARNELGVYLCNLTVADLFYICSLPFWLQYVLQHDNWSHGDLSCQVCGILLYENIYISVGFLCCISVDRYLAVAHPFRFHQFRTLKAAVGVSVVIWAKELLTSIYFLMHEEVIEDENQHRVCFEHYPIQAWQRAINYYRFLVGFLFPICLLLASYQGILRAVRRSHGTQKSRKDQIQRLVLSTVVIFLACFLPYHVLLLVRSVWEASCDFAKGVFNAYHFSLLLTSFNCVADPVLYCFVSETTHRDLARLRGACLAFLTCSRTGRAREAYPLGAPEASGKSGAQGEEPELLTKLHPAFQTPNSPGSGGFPTGRLA

Experiments:
[1] = variants of: B1; assay: cAMP reporter score (Enrich2 score, wild type = 0); higher = more signal; HEK293T, FACS bins
[2] = variants of: B1; assay: surface expression score (Enrich2 score, wild type = 0); higher = more signal; HEK293T, FACS bins

Variant | cAMP reporter score ([1]; pH 5.5) | cAMP reporter score ([1]; pH 6) | cAMP reporter score ([1]; pH 6, modulator: ogerin) | cAMP reporter score ([1]; pH 6.5, modulator: ogerin) | surface expression score [2]
V109W | -1.51 | -1.04 | -1.76 | -1.38 | -2.91
V109S | -0.818 | -0.591 | -1.25 | -1.32 | -0.426
V109L | 0.37 | 0.853 | -0.059 | -0.595 | -1.37
V109F | -2.04 | – | – | -1.16 | -2.28
V109A | -1.08 | 0.237 | -1.5 | -0.672 | 0.174
V109C | -0.35 | -1.4 | -0.344 | 0.096 | -0.049
V109K | -1.16 | -1.51 | – | 0.208 | -3.28
V109I | -0.421 | 2.18 | -0.598 | 0.553 | -0.818
V109T | -0.457 | -0.723 | 0.094 | 0.285 | 0.324
I115_S116insG | -1.23 | – | – | -1.05 | -2.4
R119I | -1.32 | -0.968 | -2.3 | -0.864 | -0.407
R119G | -0.485 | -0.235 | -1.52 | -0.393 | 0.17
R119Y | -0.908 | – | -1.58 | -1.56 | –
R119P | -2.14 | -1.05 | -0.871 | -1.46 | -2.13
R119K | 0.703 | -0.153 | -0.38 | -0.866 | -1.15
R119V | -2.68 | -0.397 | -0.648 | – | -0.407

Variant | cAMP reporter score ([1]; pH 5.5) | cAMP reporter score ([1]; pH 6) | cAMP reporter score ([1]; pH 6, modulator: ogerin) | cAMP reporter score ([1]; pH 6.5, modulator: ogerin) | surface expression score [2]
R119T | -1.26 | -1.18 | -1.69 | -1.2 | -1.34
R119N | -0.609 | -1.11 | -0.718 | -0.492 | -0.876
R119E | -0.56 | -0.67 | – | -0.194 | -1.19
R119H | -1.05 | -1.79 | -1.85 | – | –
R119S | -2.71 | -0.819 | – | -0.738 | -0.362
R119M | -1.17 | -0.605 | -1.71 | -1.04 | -0.317
R119D | -1.56 | -1.19 | – | -0.223 | –
R119A | -0.248 | -0.76 | -0.958 | -2.22 | 0.683
R119L | -1.39 | -0.14 | -1.14 | -0.876 | -1.41
R119F | -0.413 | -0.679 | -0.543 | -0.524 | -1.42
R119C | -1.26 | -1.08 | -1.4 | -1.19 | -0.514
R119Q | -1.48 | -1.32 | – | -1.25 | -0.544
R119W | -0.98 | -0.697 | – | -0.461 | -2.63
D118E | 0.368 | -1.19 | -0.623 | -1.98 | -2.6
D118L | 0.237 | 3.72 | 0.661 | 2.75 | -2.61
D118F | -2.13 | -0.181 | 0.081 | -0.602 | -1.97

Scores whose standard error is large were omitted. Two further conditions of the source, in which the scores hardly spread, are not listed. Read del as a deletion of the residues named and ins as an insertion between two positions. For part of these data: The concentration of ogerin is not given here.
